{"source": "PubChem BioAssay AID360", "about": "(National Center for Advancing Translational Sciences (NCATS), 2006)", "note": "The whole screen tested about 48,000 compounds, of which about 550 (1.1%) were called active. About 4% were inconclusive and are not listed. Cut-off read from the data, not from the text of the source: active = potency below about 15 µM; inconclusive = mostly about 16 µM to 33 µM; inactive = weaker than that. Some of the results follow. Potency is the fitted concentration of half-maximal effect."}
{"molecular_target": "Lysosomal acid glucosylceramidase (Homo sapiens) (UniProt P04062)", "sequence (P04062 whole entry, looked up)": "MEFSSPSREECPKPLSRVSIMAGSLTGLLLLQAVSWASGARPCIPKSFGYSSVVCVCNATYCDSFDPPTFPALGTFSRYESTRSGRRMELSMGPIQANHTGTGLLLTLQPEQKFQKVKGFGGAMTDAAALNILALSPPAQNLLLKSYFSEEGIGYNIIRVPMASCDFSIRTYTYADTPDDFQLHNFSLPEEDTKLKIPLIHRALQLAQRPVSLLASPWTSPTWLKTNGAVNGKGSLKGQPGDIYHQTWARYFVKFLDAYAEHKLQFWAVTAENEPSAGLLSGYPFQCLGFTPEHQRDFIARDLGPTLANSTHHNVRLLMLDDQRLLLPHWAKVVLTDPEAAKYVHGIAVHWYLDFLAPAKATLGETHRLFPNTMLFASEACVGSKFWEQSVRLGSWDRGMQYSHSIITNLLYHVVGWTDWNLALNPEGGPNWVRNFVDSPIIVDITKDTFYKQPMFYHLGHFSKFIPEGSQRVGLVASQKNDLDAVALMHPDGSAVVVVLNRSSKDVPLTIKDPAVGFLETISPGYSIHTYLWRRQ", "assay": "Glucocerebrosidase;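 note: the screen sought inhibitors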", "details": "purified enzyme, resorufin glucoside fluorescence (screen aimed at inhibitors), 20 min", "outline": "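Compounds titrated against 0.2 nM normal enzyme, 30 uM resorufin beta-D-glucopyranoside substrate, citrate/phosphate buffer with taurocholate and tween-20, pH 5.9. Reaction ran 20 min at room temperature; fluorescence (Ex 548/Em 600) gave AC50.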"}
{"smiles": "O=C(COC(=O)c1ccccc1S(=O)(=O)N1CCCCC1)NCC(F)(F)F", "Potency": "inactive: > 76.9 µM"}
{"smiles": "CNC(=O)C1CCCN1S(=O)(=O)c1ccc(OC)cc1", "note": "(centres undefined)", "Potency": "inactive: > 76.9 µM"}
{"smiles": "COc1ccccc1-c1ccc(=O)n(CC(=O)Nc2ccc(C(=O)N3CCCC3)cc2)n1", "Potency": "inactive: > 76.9 µM"}
{"smiles": "O=C(NC1CCCCC1)c1cc2nc(-c3ccco3)cc(C(F)(F)F)n2n1", "Potency": "inactive: > 76.9 µM"}
{"smiles": "Cn1c(CN2CCOCC2)nnc1SCC(=O)NC1CCCCC1", "Potency": "inactive: > 76.9 µM"}
{"smiles": "CCC1CCCCN1CCCNC(=O)C1CCN(S(=O)(=O)N2CCCCC2)CC1", "note": "(centres undefined)", "Potency": "inactive: > 76.9 µM"}
{"smiles": "Cc1ccccc1-c1nc(CN2CCC(C(=O)NCc3cccnc3)CC2)c(C)o1", "Potency": "inactive: > 76.9 µM"}
{"smiles": "CN(C)c1ccc(N=Cc2nc(-c3ccccc3)oc2O)cc1", "Potency": "inactive: > 76.9 µM"}
{"smiles": "Cc1ccc(CNC(=O)CN2CCN(Cc3ccc(Cl)cc3)C2=O)cc1", "Potency": "inactive: > 76.9 µM"}
{"smiles": "COc1ccc(-c2cc(OC)c3c(C)oc(C)c3c(=O)c2)cc1OC", "Potency": "inactive: > 76.9 µM"}
{"smiles": "O=C(Cn1cnc2c(cnn2-c2ccc(F)cc2)c1=O)OCc1ccccc1", "Potency": "inactive: > 76.9 µM"}
{"smiles": "COCCCNC(=O)C1CC(=O)N(Cc2ccc(OC)cc2)C1", "note": "(centres undefined)", "Potency": "inactive: > 76.9 µM"}
{"smiles": "COc1ccc(NC(=O)CSc2nccn2-c2ccccc2)c(OC)c1", "Potency": "inactive: > 76.9 µM"}
{"smiles": "O=C(Cc1ccc(-n2cccc2)cc1)N1CCN(c2ccccc2F)CC1", "Potency": "inactive: > 76.9 µM"}
{"smiles": "COc1ccc(C2C(C(=O)N3CCOCC3)=C(C)NC3=C2C(=O)CC(C)(C)C3)c(OC)c1", "note": "(centres undefined)", "Potency": "inactive: > 76.9 µM"}
{"smiles": "O=C(COc1ccc2oc(-c3ccccc3)cc(=O)c2c1)NCc1ccco1", "Potency": "inactive: > 76.9 µM"}
{"smiles": "CSc1ccccc1NC(=O)c1cc(-c2cccs2)on1", "Potency": "inactive: > 76.9 µM"}
{"smiles": "CC1CN(C(=O)COC(=O)c2cccs2)CC(C)O1", "note": "(centres undefined)", "Potency": "inactive: > 76.9 µM"}
{"smiles": "COC(=O)c1c(C)oc(C)c(C(=O)OC)c1=O", "Potency": "inactive: > 76.9 µM"}
{"smiles": "N#Cc1nc(-c2ccc(OCc3ccccc3)cc2)oc1N1CCOCC1", "Potency": "inactive: > 76.9 µM"}
{"smiles": "On1cnnc1-c1ccccc1", "Potency": "inactive: > 76.9 µM"}
{"smiles": "CSc1nnc(-c2ccccc2)c(=O)[nH]1", "Potency": "inactive: > 76.9 µM"}
{"smiles": "c1ccc(Cn2nnnc2-c2ccco2)cc1", "Potency": "inactive: > 76.9 µM"}
{"smiles": "Cn1c(=O)c2c(nc(CN3CCc4ccccc4C3)n2CCc2ccccc2)n(C)c1=O", "Potency": "inactive: > 76.9 µM"}
{"smiles": "COc1cccc(NC(=O)Cn2nnc(C(=O)Nc3ccccc3)c2N)c1", "Potency": "inactive: > 76.9 µM"}
{"smiles": "COc1ccc2c(c1OC)C(=O)N1C2SC[C@H]1C(=O)NC1CC(C)(C)NC(C)(C)C1", "note": "(some centres undefined)", "Potency": "inactive: > 76.9 µM"}
{"smiles": "O=C(Cc1ccccc1)Nc1nnc(-c2ccco2)s1", "Potency": "inactive: > 76.9 µM"}
{"smiles": "NC(=O)COc1ccc(NC(=O)OCc2ccccc2)cc1", "Potency": "inactive: > 76.9 µM"}
{"smiles": "CCOC(=O)C1CCCN(C(=O)c2cc3nc(-c4cccc(OC)c4)cc(C(F)(F)F)n3n2)C1", "note": "(centres undefined)", "Potency": "active: 7.22 µM"}
{"smiles": "C=CCNc1nc(NCc2ccco2)nc(OCC)n1", "Potency": "inactive: > 76.9 µM"}
{"smiles": "CC(C)c1ccc(S(=O)(=O)c2n[nH]n3c2nc(=O)c2ccccc23)cc1", "Potency": "inactive: > 76.9 µM"}
{"smiles": "COc1ccc(NC(=O)CCN2CCN(S(=O)(=O)c3cc(Cl)ccc3OC)CC2)cc1", "Potency": "inactive: > 76.9 µM"}
{"smiles": "COc1ccc(C2(C)NC(=O)N(Cc3cc(Cl)cc4c3OCOC4)C2=O)cc1OC", "note": "(centres undefined)", "Potency": "inactive: > 76.9 µM"}
{"smiles": "O=C(CSc1nnc(-c2ccco2)n1CC1CCCO1)N1CCCCC1", "note": "(centres undefined)", "Potency": "inactive: > 76.9 µM"}
{"smiles": "COCc1nc(-c2cc(OC)c(OC)c(OC)c2)no1", "Potency": "inactive: > 76.9 µM"}
{"smiles": "CCn1c2ccccc2c2cc(NC(=O)CSc3nnc(C4CC4)n3Cc3ccco3)ccc21", "Potency": "inactive: > 76.9 µM"}
{"smiles": "Cc1ccccc1NC1C=CS(=O)(=O)C1", "note": "(centres undefined)", "Potency": "inactive: > 76.9 µM"}
{"smiles": "COc1ccc(CN(C(=O)CN2C(=O)COc3ccccc32)C2CCCC2)c(OC)c1", "Potency": "inactive: > 76.9 µM"}
{"smiles": "COc1cc(OC)cc(C(=O)NCCSCc2ccco2)c1", "Potency": "inactive: > 76.9 µM"}
{"smiles": "Cc1ccccc1NC(=O)CSC(N)=O", "Potency": "inactive: > 76.9 µM"}
{"smiles": "CCCOc1ccc(C(=O)CCN2CCCCC2)cc1", "Potency": "inactive"}
{"smiles": "CC(C)OCCCn1c(=S)[nH]c2ncccc2c1=O", "Potency": "inactive: > 76.9 µM"}
{"smiles": "Cc1ccc(-n2c(=O)c3sccc3n(CC(=O)NCc3ccco3)c2=O)cc1", "Potency": "inactive: > 76.9 µM"}
{"smiles": "CCC1CCCCN1CCCNC(=O)COc1cc(=O)n(C)c2ccccc12", "note": "(centres undefined)", "Potency": "inactive: > 76.9 µM"}
{"smiles": "Cc1cccc(NC(=O)COc2nsnc2N2CCOCC2)c1", "Potency": "inactive: > 76.9 µM"}
{"smiles": "CCOC(=O)NC(=O)CSc1nnnn1-c1ccc(Cl)cc1", "Potency": "inactive: > 76.9 µM"}
{"smiles": "Cc1cc2cc(CNC(=O)c3ccc4c(c3)OCO4)ccc2n1C", "Potency": "inactive: > 76.9 µM"}
{"smiles": "C=CCn1c(SCC#N)nc2ccccc2c1=O", "Potency": "inactive: > 76.9 µM"}
{"smiles": "COc1ccc(Cn2c(SCC(=O)NCc3ccco3)nc3ccsc3c2=O)cc1", "Potency": "inactive: > 76.9 µM"}
{"smiles": "COc1ccc(CC(=O)Nc2nc3ccccc3s2)cc1S(=O)(=O)N1CCOCC1", "Potency": "inactive: > 76.9 µM"}
{"smiles": "CCOC(=O)c1nnn(-c2nonc2N)c1CNC(C)C", "Potency": "inactive: > 76.9 µM"}
{"smiles": "c1ccc(OCCOc2ncnc3ccccc23)cc1", "Potency": "inactive: > 76.9 µM"}
{"smiles": "Cc1ccc(Cn2ccc(NC(=O)c3cc(-c4ccc(Cl)cc4)on3)n2)cc1", "Potency": "inactive: > 76.9 µM"}
{"smiles": "Cc1ccc(Cn2c(SCC(C)C)nc3c2c(=O)n(C)c(=O)n3C)cc1", "Potency": "inactive: > 76.9 µM"}
{"smiles": "CC(C)OCCCNC(=O)C1CC(=O)N(C2CCCCCCC2)C1", "note": "(centres undefined)", "Potency": "inactive: > 76.9 µM"}
{"smiles": "COc1ccc(CCNC(=O)c2sc(=S)n(C)c2N)cc1", "Potency": "inactive: > 76.9 µM"}
{"smiles": "O=C(CSc1nnnn1C1CCCCC1)Nc1nc2c(s1)CCCC2", "Potency": "inactive: > 76.9 µM"}
{"smiles": "CS(=O)(=O)Cc1nc2ccccc2oc1=O", "Potency": "inactive: > 76.9 µM"}
{"smiles": "CCOC(=O)Cn1cnc2c(nnn2Cc2ccc(Cl)cc2)c1=O", "Potency": "inactive: > 76.9 µM"}
